± gives the standard deviation. Only a part is listed here, and it is no random draw.
System: MIWI (PIWIL1) piRISC loaded with L1MC piRNA (30 nt)
Assay: pre-steady-state target cleavage rate (min^-1); MIWI and MILI are mouse PIWI proteins and EfPiwi is from a freshwater sponge; tags in brackets are library labels; higher = faster piRNA-guided slicing of the target
Details: guide: L1MC piRNA 5'p-UAACUAAAUACUAUGCAAGCUGUAGGUCCU
In short: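 Sequencing of uncleaved targets, normalised to depth and to weakly complementary targets, was the readout of this Cleave-'n-Seq assay. A transcribed, DNA-blocked target RNA library (0.1 nM) was mixed with 1 nM active affinity-purified piRISC carrying one synthetic guide, with or without 500 nM GTSF1 partner protein, in HEPES–potassium acetate buffer at 33 °C for 0–8 or 0–960 min. Three trials were pooled, k3 was capped at 0.0001 min^-1, and a burst-and-steady-state fit gave the pre-steady-state cleavage rate.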

[1] = auxiliary factor: 500 nM mouse GTSF1
[2] = auxiliary factor: none (no GTSF1)

| Sequence | pre-steady-state target cleavage rate [1] | pre-steady-state target cleavage rate [2] |
| --- | --- | --- |
| UCCACCUACAGCUUGCAUAGUAUUAACUUA | 0.22 ± 0.035 | 0.00734 ± 0.0026 |
| AGGGACCUACAGCUUGCAUAGUAUUUAGUUA | 1.31 ± 0.086 | 0.102 ± 0.021 |
| AGGACCUACAGCUUCCUUAGUAUUUAGUUA | 0.63 ± 0.049 | 0.00273 ± 0.0022 |
| UCCACCUACAGCUAGCAUAGUAUAUAGUUA | 0.419 ± 0.041 | 0.0063 ± 0.0024 |
| AGGACCUACAGUUUGCAUAGUAUUUAGUUA | 1.25 ± 0.073 | 0.0653 ± 0.0093 |
| AGCUCCUACAGCUUGCAUAGUAUUUACAAA | 0.331 ± 0.047 | 0.00384 ± 0.0021 |
| UCCUCCAUGAGCUUGCAUAGUAUUUAGAAA | 0.155 ± 0.024 | 0.00465 ± 0.0018 |
| UCCACGUACAGCUUGCAUAGUUUUUAGUUA | 0.427 ± 0.021 | 0.0381 ± 0.0084 |
| UCCUGGAACAGCUCUGCAUAGUAUUUAGUUA | 1.18 ± 0.07 | 0.024 ± 0.0067 |
| UCCUCCUACAGCUUGCAUUGAAUUUAGUUA | 0.183 ± 0.018 | 0.00617 ± 0.0025 |
| UCCUCCUACAGUUGCAUAGUAUUUAGUUA | 0.742 ± 0.046 | 0.00376 ± 0.0017 |
| AGGACCUACAGCUUGCAUUGUAUUUUGUUA | 0.44 ± 0.025 | 0.0194 ± 0.004 |
| UCCUGGAAGAGCUUGCAUAGUAUUUUGUUA | 0.704 ± 0.076 | 0.0231 ± 0.0062 |
| UCCUGGAUGUGCUUGCAUAGUAUUUAGUCA | 0.194 ± 0.017 | 0.0167 ± 0.004 |
| UCCUCCAAGAGCUUGCAUAGUAUUUAGUUA | 1.02 ± 0.043 | 0.0449 ± 0.0085 |
| UGGAGGUACAGCUUGCAUAGUAUUUAGUAA | 0.794 ± 0.065 | 0.0463 ± 0.0071 |
| AGGACCUACAGCUUGCAUAUAUUUAGUUA | 0.59 ± 0.061 | 0.00545 ± 0.0021 |
| UCCUGCGACAGCUUGCAUAGUAUUUAGUUA | 1.19 ± 0.06 | 0.0863 ± 0.017 |
| UCGACCUACAGCUUGGAUAGUAUUUAGAAA | 0.372 ± 0.044 | 0.00679 ± 0.002 |
| UCCUGGAUCAGCUUGCAUAGUAUUAAGAUA | 0.265 ± 0.05 | 0.00645 ± 0.0033 |

| Sequence | pre-steady-state target cleavage rate [1] | pre-steady-state target cleavage rate [2] |
| --- | --- | --- |
| UCCUGGAACAGCAUGCAUAGUAUUUAGUUA | 1.06 ± 0.052 | 0.0304 ± 0.0059 |
| UCCUCCUAGAGCUUGCAAAGUAUUUAGUUA | 0.829 ± 0.049 | 0.0237 ± 0.0051 |
| AGGACCUAGAGCUUGCAUAGUAUUUACUUA | 0.157 ± 0.021 | 0.0219 ± 0.0043 |
| UCCUGCUACAGCUUGCAUAGUAUUAAGUUA | 0.584 ± 0.041 | 0.0168 ± 0.0031 |
| UCCACCUAAGCUUGCAUAGUAUUUAGUUA | 0.428 ± 0.037 | 0.025 ± 0.0049 |
| UGGACCUACAGCUUGCAUAGAUUUUAGUAA | 0.0856 ± 0.019 | 0.00279 ± 0.0026 |
| UCCUCCUACUCGUUGCAUAGUAUUUAGUAA | 0.466 ± 0.035 | 0.00623 ± 0.0016 |
| UCCUGCUAGACCUUGCAUAGUAUUUAGUUA | 0.453 ± 0.032 | 0.0177 ± 0.0029 |
| UCGACCAACAGCUUGCAUAGUAUUAAGUUA | 0.715 ± 0.038 | 0.0344 ± 0.0084 |
| AGGACCUACAGCUUGGAUAGUAUAUAGUUA | 0.736 ± 0.053 | 0.0336 ± 0.0076 |
| UCCUGCUUCAGCUUGCAUAGUAUUUAGUUA | 1.19 ± 0.051 | 0.0684 ± 0.012 |
| UCCUGGAUGAGCUUGCAGAGUAUUUAGUUA | 0.31 ± 0.022 | 0.0283 ± 0.0086 |
| AGGAGCUACAGCUUGCAUAGUAUUUUGUUA | 0.891 ± 0.061 | 0.0672 ± 0.014 |
| UCGACCUACAACUUGCAUAGUAUUUAGUUA | 1.33 ± 0.041 | 0.0746 ± 0.015 |
| UCCUGGAUGUGCUUGCAUAGUAUUUACAAA | 0.0422 ± 0.012 | 0.0047 ± 0.0024 |
| UCCUGGAUCAGCUAGCAUAGUAUUUUGUUA | 0.637 ± 0.044 | 0.00702 ± 0.0024 |
| UGGACCUACAGCAAGCAUAGUAUUUAGUUA | 1.34 ± 0.1 | 0.00929 ± 0.0027 |
| UCCUCCUACAGCUUGGAUAGUAUUUUGUUA | 0.77 ± 0.052 | 0.0251 ± 0.004 |
| UCCUGGAUGUGCUUGCAUAGUUUUUAGUAA | 0.0145 ± 0.0059 | 0.00835 ± 0.0023 |
| UCCUGGAUCAGCUUGCUUACUAUUUAGUUA | 0.161 ± 0.011 | 0.0105 ± 0.003 |

| Sequence | pre-steady-state target cleavage rate [1] | pre-steady-state target cleavage rate [2] |
| --- | --- | --- |
| UCCACCUACAGCAUGCAAAGUAUUUAGUUA | 0.967 ± 0.039 | 0.0109 ± 0.0022 |
| UCCUGGAUGAGCUUGCUUAGUAUUUAGUUA | 0.61 ± 0.037 | 0.0307 ± 0.0075 |
| UCCUGGUACAGCUUGCAUAGUAUAAUGUUA | 0.229 ± 0.032 | 0.0143 ± 0.0036 |
| AGGACCUACAGCUUGCAUAGAAUAUAGUUA | 0.373 ± 0.037 | 0.0174 ± 0.0066 |
| UCCUCCUACAGCUUGCAAAGUAUUUAGUAA | 0.545 ± 0.039 | 0.0171 ± 0.0037 |
| UCGACCUACAGCUUGCAUACUAUUUAGUAA | 0.224 ± 0.023 | 0.0184 ± 0.0039 |
| UCCUGGAACAGGUUGCAUAGUAUUAAGUUA | 0.518 ± 0.052 | 0.00635 ± 0.0026 |
| UCCUGGAUGAGCUUGGAUAGUAUUUAGAUA | 0.0843 ± 0.015 | 0.00972 ± 0.0043 |
| AGGACCUUCAGCUUGCAUAGUUUUUAGUUA | 0.409 ± 0.022 | 0.0547 ± 0.012 |
| UCGACCUACAGCUUGCAUACUUUUUAGUUA | 0.0508 ± 0.0081 | 0.0053 ± 0.0013 |
| UGGACCUUCAGCUUGCAUAGUUUUUAGUUA | 0.438 ± 0.025 | 0.0391 ± 0.0094 |
| AGGUCCUACAGCUUGCAUAGUAUAUAGUUA | 0.548 ± 0.042 | 0.0347 ± 0.0077 |
| UGGACCUACUCGUUGCAUAGUAUUUAGUAA | 0.221 ± 0.023 | 0.00556 ± 0.0025 |
| AGGACCUUCAGCUUGCAUAGUAUUUAGUAA | 1.07 ± 0.079 | 0.0632 ± 0.012 |
| UCCUGCUACUGCUUGCAUACUAUUUAGUUA | 0.348 ± 0.02 | 0.0269 ± 0.0055 |
| UCGACCUACUCCUUGCAUAGUAUUUAGAAA | 0.265 ± 0.039 | 0.00587 ± 0.0015 |
| UCCACCUAUAGCUUGCAUAGUAUUUAGUUA | 0.689 ± 0.026 | 0.0407 ± 0.0075 |
| UCCUCCUACAGCAUGCAUAGUAUUAAGUUA | 0.682 ± 0.039 | 0.00593 ± 0.0018 |
| UCCUGGAACAGCUUGCAUUGAAUUUAGUUA | 0.108 ± 0.014 | 0.00911 ± 0.0042 |
| UCGUCCUACAGCUUGCAUAGUAUUUAGUUA | 1.42 ± 0.041 | 0.0638 ± 0.0093 |

Reference: the supplement of paper PMC10338343
